Assay results published in PubChem BioAssay (NCI).
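Compound exposure: 48 hours, 5 concentrations, 96-well plates. GI50 marks 50% less growth. TGI: total growth inhibition.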

Test system: NCI-H322M lung
Experiment: growth of human tumour cells (NCI), 48 h

Structure (SMILES) | GI50 | TGI
OCCCNc1oc(-c2ccccc2)nc1[P+](c1ccccc1)(c1ccccc1)c1ccccc1 | 8.88 µM | 21.6 µM
COc1cc(Cn2c(C(F)(F)F)cc3c(Cl)ncnc32)ccn1 | 1.71 µM | 3.3 µM
O=C(/C=C/Nc1ccc(Cl)cc1)c1ccc2c(c1)Nc1ccccc1S2 | 12.8 µM | > 100 µM
